Laboratory results from article PMC4006704.
Results are given in words; binding and its absence hold for the method and conditions named. Binding seen in cells or lysates may run through a third protein. Some results given as binding are weak or reduced against the parent protein; the word gives no strength. For part of these data: Where a sequence is shown, tags or fusion partners need not be part of it. Blank lines part the entries; values can stand above or below the molecule they belong to.

Sequences of proteins named here, by UniProt entry; tags and fusion partners are left off. Residues count along the entry.
UniProt P83949: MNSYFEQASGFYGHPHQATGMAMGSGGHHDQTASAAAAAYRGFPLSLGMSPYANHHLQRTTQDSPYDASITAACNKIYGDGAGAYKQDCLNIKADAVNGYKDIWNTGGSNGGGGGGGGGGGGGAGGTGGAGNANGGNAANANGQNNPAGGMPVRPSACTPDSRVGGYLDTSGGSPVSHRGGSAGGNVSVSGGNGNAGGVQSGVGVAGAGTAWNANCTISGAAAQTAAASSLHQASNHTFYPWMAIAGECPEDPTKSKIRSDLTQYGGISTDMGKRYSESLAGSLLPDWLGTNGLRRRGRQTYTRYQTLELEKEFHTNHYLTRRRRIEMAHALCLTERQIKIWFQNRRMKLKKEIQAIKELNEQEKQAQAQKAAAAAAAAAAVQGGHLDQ
UniProt P02833, residues 279-378: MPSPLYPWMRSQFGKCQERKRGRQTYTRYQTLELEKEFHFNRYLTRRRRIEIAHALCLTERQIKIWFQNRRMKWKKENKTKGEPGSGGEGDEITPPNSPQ
UniProt P07548: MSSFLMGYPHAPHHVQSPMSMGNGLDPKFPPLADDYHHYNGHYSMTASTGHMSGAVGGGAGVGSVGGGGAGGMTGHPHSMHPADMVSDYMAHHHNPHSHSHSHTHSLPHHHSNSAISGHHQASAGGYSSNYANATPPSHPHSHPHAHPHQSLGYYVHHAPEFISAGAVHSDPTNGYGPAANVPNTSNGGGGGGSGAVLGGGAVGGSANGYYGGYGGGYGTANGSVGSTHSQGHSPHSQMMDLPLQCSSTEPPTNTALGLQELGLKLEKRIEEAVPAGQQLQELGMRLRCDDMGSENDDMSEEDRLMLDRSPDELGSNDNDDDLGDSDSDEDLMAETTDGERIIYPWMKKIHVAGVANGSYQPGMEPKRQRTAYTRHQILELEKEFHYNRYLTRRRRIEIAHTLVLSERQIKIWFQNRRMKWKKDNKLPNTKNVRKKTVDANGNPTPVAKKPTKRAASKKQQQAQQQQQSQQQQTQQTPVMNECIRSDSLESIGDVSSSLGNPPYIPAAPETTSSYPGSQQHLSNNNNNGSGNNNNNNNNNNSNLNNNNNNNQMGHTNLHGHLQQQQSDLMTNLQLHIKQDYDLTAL
UniProt P31264, residues 119-327: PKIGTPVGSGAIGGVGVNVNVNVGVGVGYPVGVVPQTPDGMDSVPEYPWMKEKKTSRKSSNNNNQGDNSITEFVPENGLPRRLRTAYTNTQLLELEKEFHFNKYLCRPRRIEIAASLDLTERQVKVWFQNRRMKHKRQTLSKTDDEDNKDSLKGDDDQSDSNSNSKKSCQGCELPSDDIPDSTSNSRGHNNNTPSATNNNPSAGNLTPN
UniProt P29555: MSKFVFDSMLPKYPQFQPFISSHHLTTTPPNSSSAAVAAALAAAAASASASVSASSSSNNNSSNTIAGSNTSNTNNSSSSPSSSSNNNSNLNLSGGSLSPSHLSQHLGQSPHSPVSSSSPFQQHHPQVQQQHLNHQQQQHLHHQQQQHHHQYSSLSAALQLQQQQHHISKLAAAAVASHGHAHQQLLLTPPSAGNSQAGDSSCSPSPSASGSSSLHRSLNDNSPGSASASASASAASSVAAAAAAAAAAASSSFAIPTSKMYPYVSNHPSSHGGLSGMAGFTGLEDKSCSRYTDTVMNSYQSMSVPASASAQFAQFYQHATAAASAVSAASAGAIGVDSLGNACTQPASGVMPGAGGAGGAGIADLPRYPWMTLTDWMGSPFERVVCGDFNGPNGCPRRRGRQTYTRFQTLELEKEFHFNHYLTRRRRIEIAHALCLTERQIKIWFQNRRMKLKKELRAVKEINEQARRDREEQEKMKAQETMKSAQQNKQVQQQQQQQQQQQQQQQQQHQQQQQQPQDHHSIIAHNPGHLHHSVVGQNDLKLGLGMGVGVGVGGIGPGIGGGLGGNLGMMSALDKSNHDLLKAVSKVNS

How the values were obtained:
[1] = biological target: T1, Med19-VC (full-length Med19 fused to the C-terminal fragment of Venus) (Drosophila melanogaster) (UniProt Q9VVL6); test: co-IP; transfected Drosophila S2 cells; extracts in IP buffer (50 mM TrisHCl pH 8, 150 mM NaCl, 0.5% NP40, 1 mM EGTA), 4°C, immunoprecipitated with mouse anti-GFP (VC tag) and G-protein Sepharose; Western blots with anti-Med1, anti-Med19, anti-HA
T1 sequence: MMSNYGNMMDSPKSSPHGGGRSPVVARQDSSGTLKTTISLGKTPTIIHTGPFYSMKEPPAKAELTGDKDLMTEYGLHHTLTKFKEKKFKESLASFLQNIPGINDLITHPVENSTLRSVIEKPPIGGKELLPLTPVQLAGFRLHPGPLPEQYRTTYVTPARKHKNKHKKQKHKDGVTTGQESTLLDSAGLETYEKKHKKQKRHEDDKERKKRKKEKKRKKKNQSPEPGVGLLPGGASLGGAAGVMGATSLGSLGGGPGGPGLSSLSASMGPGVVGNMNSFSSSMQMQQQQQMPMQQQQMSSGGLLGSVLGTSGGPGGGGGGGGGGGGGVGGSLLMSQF

[2] = biological target: T1, Med19-VC (full-length Med19 fused to the C-terminal fragment of Venus) (Drosophila melanogaster); test: split reporter; BiFC with Venus VN and VC fusions co-expressed from UAS constructs in Drosophila embryos under engrailed-Gal4, Ubx-Gal4 or abdA-Gal4 control
[3] = biological target: GST-Ultrabithorax (full-length) (Drosophila melanogaster) (UniProt P83949); test: pull-down; 35S-labelled Med19 (full length or deleted versions) probing immobilised GST-Hox fusions or GST-HDAntp; standard conditions, essentially as in ref. 68 (Figures 1A, 5A); only the target purified
[4] = biological target: GST-Antp4 (Antennapedia C-ter with HD, a.a. 279–378) (Drosophila melanogaster) (UniProt P02833); test: as above
[5] = biological target: GST-Deformed (full-length) (Drosophila melanogaster) (UniProt P07548); test: as above
[6] = biological target: GST-Pb2 (Proboscipedia middle with HD, a.a. 119–327) (Drosophila melanogaster) (UniProt P31264); test: as above
[7] = biological target: T1, Med19-VC (full-length Med19 fused to the C-terminal fragment of Venus) (Drosophila melanogaster); test: co-IP; transfected Drosophila S2 cells; extracts in IP buffer (50 mM TrisHCl pH 8, 150 mM NaCl, 0.5% NP40, 1 mM EGTA), 4°C, immunoprecipitated with mouse anti-GFP (VC tag) and G-protein Sepharose; Western blots with anti-Med1, anti-Med19, anti-HA; remark: listed apart in the source

binding [1]: binds
Molecule: Ubx-HA (from UniProt P83949 1-389)

binding [2]: binds
Molecule: VN-Ubx (full-length Ubx fused to the N-terminal fragment of Venus) (from UniProt P83949 1-389)

binding [2]: binds
Molecule: VN-Dfd (from UniProt P07548 1-586)

binding [2]: no binding
Molecule: VN-AbdA (full-length Abdominal-A fused to the N-terminal fragment of Venus) (from UniProt P29555 1-590)

binding [3]: binds
binding [4]: binds
binding [5]: binds
binding [6]: binds
B1: 35S-labelled full-length Med19 (Mediator complex subunit 19) (protein, UniProt Q9VVL6 1-337)
chain: MMSNYGNMMDSPKSSPHGGGRSPVVARQDSSGTLKTTISLGKTPTIIHTGPFYSMKEPPAKAELTGDKDLMTEYGLHHTLTKFKEKKFKESLASFLQNIPGINDLITHPVENSTLRSVIEKPPIGGKELLPLTPVQLAGFRLHPGPLPEQYRTTYVTPARKHKNKHKKQKHKDGVTTGQESTLLDSAGLETYEKKHKKQKRHEDDKERKKRKKEKKRKKKNQSPEPGVGLLPGGASLGGAAGVMGATSLGSLGGGPGGPGLSSLSASMGPGVVGNMNSFSSSMQMQQQQQMPMQQQQMSSGGLLGSVLGTSGGPGGGGGGGGGGGGGVGGSLLMSQF
modifications: 35S-labelled

binding [7]: binds
B2: endogenous Med1 (three isoforms) (protein, UniProt Q9VP05 1-1475)
chain: MSGSNAKSSGTGFGSHIPSIEEKNKQIQQETMMEKLRAKYRNKPKSYEEIKKSVRMYFIEKHYPLDPLCKATLQSALDKLQHYIKVTSRHGLVERLESLSRQLGLKFMEDQQLLFISTDMFYVEILLDAAGSLSDVKVHHECKIEQQSSELVACLKSGDFADFTVQLEGLSSIYQLNAEPKVKKKAFVALQAMETDIQSLYQLHLQGHSGDSYSLMTSSSVGLVLPRRGGHPMRLTYFCPPLHLPEGDPKLASGDFTIDQVMRSSYGLSATINLEGSSANKLQTLPTVTLVRDAQTGLEVPTYAQLNQNNSLLMPATFVLRLNKPMPVCLESLKALGLPGLDSVATPPGPPTTVLNLIVQTASKQAIKNTQRGLYVNLPKETHCYFFTDNRKLQGTLVSSLPFTEPAQVPRIVAFLKKQALFYTLLASCVREQQKQYNDMDSTVILEVTAVSFNQITVELQHPYEESLATVDFLLEDGQPTCSVYCLTNEYELLSQKLTRTARKVVSIPMVIYKLLKCWDEEHEFKLHGAIGPGSGSGAIGGGGMSGGGPVSGVGNNFSQFSMDTPTPSDGSLPGGGFANINNLKMDAKSRSLADAFAASTSAAAAIAGLINLKRETDPQSGSSASGTTVSGSSSSSGSAKTSDHDIADKYKNIWKDKTPNLKHCVSITPIPGDGKSGSAGGVSGVEVQRTGGIEIIPLNAQAAIAGGGVTASSSATPTTITITPITGKDPSKDSTKKSTAASAGVGVAAKRPHESSTSSSSTSGCSGSGSSMSSSASSGSSDTQKEKKRKKKRDDSPMGPPEKIYSRQNSPAGGADASATGGVVRKFSSPSSSPKAGGGGQGLMAGVPTARPSPKHSPVYSSPKHNTASNSPKSPFGTHSPKHGSSGKPSMSTLKSAATAATILSPKGDKSSSAVGNTSSGPSASSGSSGATGLVRSFASVGAPPPPPPIPPLASSSGSISSSQSLKKEKTSSASGSSSTSSSATAGVASGGGISPASVAAAVAALKSSQQQMKSVASLSHLAAGGGLGSYAAPSGAGASGAAAVVVGAGAGAGAGASGLELSALRKGMAGGAVSLMTSTAALAPTIPAPTTTVAAGSAASLVSPVSAVVGQGQETAGAAAAATLATATILQQQPQPGAAPTSSCLTTSGGSSDSAGSINPAGASTEYMVKPSSQEGLKLTINKTGSSKSSGTGSGSSSSSGLQAKAKSSSSGATSFAGSTGSTKKQHTGLKPGVNSGPASKKATAAVSSATASSSKHFFQKANSSGNLSSKLSGSGSGGGIPLTKSNSTNSFQEHNAPRRRPSMGALASGSSGGGSGQRKLGSASGGGSGSSGSVSPALSGSMSQPPPRFDHHTDMMTILQYASPTMAASMEGFIKGLHNKFQIPKLSQRGSGGNTTSGRSTPSGSSEPALAGTSSSILGPIASSTGLTEPEAKPPVPPSQSGNEGLLNLSSTAGTPSADGIDEELLASLAGE
